According to PubChem BioAssay AID540267 (National Center for Advancing Translational Sciences (NCATS), 2011):
Among all 340,000 compounds or so, about 530 (0.16%) were called active. The inconclusive results got no clear call from the source; some entries with a clear call stand among them for comparison. Rule as the data show it: active = activity change below about -80%; inconclusive = between about -30% and that limit; inactive = weaker than that.

assay: Small Molecules that selectively kill Giardia lamblia: qHTS; details: Giardia lamblia trophozoite viability; at 7.66 µM; hits give low values;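 also: parasites exposed to compound for two days anaerobically before the ATP read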
In short: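 Luminescence from cellular ATP indicates surviving trophozoites (100 cells/well) following 48 hrs anaerobic compound treatment at 37 deg C; signal develops 15-30 min at room temperature.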
% is scaled to controls: 0 for no effect and ±100 for the full control effect.

SMILES | activity change
Cc1nn(CC(=O)OCCOc2ccc(Br)cc2)c(C)c1[N+](=O)[O-] | inconclusive: -31% [inhibitor]
COc1ccc([N+](=O)[O-])cc1NC(=S)NC(NC(C)=O)C(Cl)(Cl)Cl (stereo not drawn) | inconclusive: -33.1% [inhibitor]
COc1ccccc1NS(=O)(=O)c1cc(NC(=O)c2cc(=O)[nH]c3ccccc23)ccc1N1CCOCC1 | inconclusive: -33.4% [inhibitor]
O=C(COc1cccnc1[N+](=O)[O-])Nc1cccc(S(=O)(=O)N2CCCCC2)c1 | inconclusive: -54.7% [inhibitor]
Cc1ccc(-c2ccc(SCC(=O)c3ccccc3)nn2)cc1 | inconclusive: -31.2% [inhibitor]
COc1ccccc1N(C)S(=O)(=O)c1ccc(Cl)c(C(=O)OCc2c(C)noc2C)c1 | inactive: -9.67%
NS(=O)(=O)c1ccc2nc(NC(=O)c3ccc(Br)o3)sc2c1 | inconclusive: -34.7% [inhibitor]
O=C(N/N=C/c1cc([N+](=O)[O-])ccc1O)Nc1ccccc1 | inactive: -12.1%
COC(=O)C[C@H]1c2cc(F)ccc2S(=O)(=O)N1Cc1ccccc1OC | inconclusive: -39.8% [inhibitor]
CCOC(=O)c1sc2nc(CC(=O)OC)nc(NCCN3CCOCC3)c2c1C | inactive: 6.37%
COc1ccc(NC(=O)CNC(c2ccccc2)c2ccccc2)cc1 | inconclusive: -37.4% [inhibitor]
O=C(NCCCn1ccnc1)C(=O)NCC1OCCN1S(=O)(=O)c1ccc(Br)cc1 (stereo not drawn) | inconclusive: -31% [inhibitor]
CN1CCN(S(=O)(=O)c2ccc3ccccc3c2)CC1 | inconclusive: -30.4% [inhibitor]
CN(C)c1ccc(/C=C/c2c([N+](=O)[O-])c(=O)n(C)c(=O)n2C)cc1 | inconclusive: -32.6% [inhibitor]
O=[N+]([O-])c1ccc(N2CCN(Cc3ccc([N+](=O)[O-])o3)CC2)cc1 | inconclusive: -79.6% [inhibitor]
O=C1CCCc2ccccc2N1 | inconclusive: -41.6% [inhibitor]
COc1cc(-c2nnc(SCc3cc(=O)oc4cc(O)c(O)cc34)o2)cc(OC)c1OC | inactive: -11.4%
O=C1CCCc2c1nc(-c1ccco1)n2O | inconclusive: -35.1% [inhibitor]
COc1ccc(C(=O)Nc2cccc(S(=O)(=O)NC3=NCCC3)c2)cc1OC | inconclusive: -33.2% [inhibitor]
N#Cc1ccc(OCC(O)CS(=O)(=O)c2ccccc2)cc1 (stereo not drawn) | inactive: 8.89%
Cc1csc(NC(=O)c2cn3ccccc3n2)n1 | inconclusive: -56.1% [inhibitor]
Cc1cc(C)c2c(N)c(C(=O)Nc3nccs3)sc2n1 | inconclusive: -71.3% [inhibitor]
COc1ccc(S(=O)(=O)N2CCOCC2)cc1NC(=O)CCNC(=O)c1ccc(Cl)cc1 | inactive: 29.5%
CCn1cc([N+](=O)[O-])c(C(=O)N2N=C(c3cccc4ccccc34)CC2c2ccccc2O)n1 (stereo not drawn) | inactive: -25.6%
COc1ccc2oc(C(=O)Nc3ccccn3)c(C)c2c1 | inconclusive: -32.7% [inhibitor]
Cc1cc(C(=O)N/N=C/C=C/c2cccc([N+](=O)[O-])c2)n[nH]1 | inconclusive: -44.1% [inhibitor]

SMILES | activity change
COc1ccc2c(c1)c(C(=O)N/N=C/c1cccc(O)c1)c(C)n2C | inactive: -11%
Cc1c(C)c2ccc(OCC(=O)Nc3ccccn3)c(C)c2oc1=O | active: -98%
CCc1c(C)sc(NC(=O)C2CCCCC2C(=O)O)c1C(N)=O (stereo not drawn) | inconclusive: -30.4% [inhibitor]
COc1cccc(C(=O)Nc2ccc3[nH]ncc3c2)c1 | inconclusive: -37.2% [inhibitor]
O=C(CN1C(=O)CSc2ccc(S(=O)(=O)N3CCOCC3)cc21)NCc1cccnc1 | inconclusive: -43.7% [inhibitor]
CCOc1ccc2c(c1)/C(=C(\C(Cl)=C(Cl)Cl)[N+](=O)[O-])N2 | inconclusive: -64.3% [inhibitor]
O=C(CCC(=O)c1cccs1)Nc1nc2ccccc2s1 | inconclusive: -31.1% [inhibitor]
Cn1c(N)c(C(=O)CSc2nn(-c3ccccc3)c(=S)s2)c(=O)n(C)c1=O | inactive: 9.18%
Cc1ccnc(NC(=O)c2ccc(C(=O)c3ccccc3)cc2)c1 | inconclusive: -35.6% [inhibitor]
CN(C)c1ccc(C(=O)Nc2cccc(S(=O)(=O)NC3=NCCCCC3)c2)cc1 | inconclusive: -38.4% [inhibitor]
CCC(C(=O)N1CCN(c2cccc(Cl)c2)CC1)c1ccccc1 (stereo not drawn) | inactive: 2.94%
O=C(Nc1nc2c(F)cc(F)cc2s1)c1ccccn1 | inconclusive: -36.1% [inhibitor]
CCOC(=O)c1ccc(N=c2sc(C(=O)OC)cc(=O)n2Cc2ccc3c(c2)OCO3)cc1 | inconclusive: -34.5% [inhibitor]
C[C@@H](NC(=O)c1[nH]cnc1C(=O)Nc1ccon1)c1ccccc1 | inconclusive: -40.5% [inhibitor]
CCOC(=O)c1[nH]cnc1C(=O)NC1CCN(C(=O)OC(C)(C)C)CC1 | inactive: -7.06%
Cc1ccccc1N/C(=C(/C(Cl)=C(Cl)Cl)[N+](=O)[O-])n1nnc2ccccc21 | inconclusive: -31.5% [inhibitor]
C=COCCNC(=S)N1CCOCCOCCN(C(=S)NCCOC=C)CCOCCOCC1 | inconclusive: -38.1% [inhibitor]
COc1ccc(-c2nc3c(C(=O)NCCN(C)C)cccc3c3ccccc23)cc1 | inactive: 5.85%
O=S(=O)(c1cccs1)N1CCN(S(=O)(=O)c2cccs2)CC1 | inconclusive: -30% [inhibitor]
CSc1cccc(CN2CCC(CCC(=O)NC3CC3)CC2)c1 | inactive: -17.7%
CCC(CC)C(=O)N(CCc1ccc(OC)cc1)Cc1nc2ccccc2c(=O)[nH]1 | inconclusive: -35% [inhibitor]
COc1ccccc1Oc1ccc(NC(=O)c2ccccc2)cc1 | inconclusive: -32.9% [inhibitor]
CCN1CCN(Cc2c(O)ccc3c2O/C(=C\C=C\c2ccccc2OC)C3=O)CC1 | inactive: -2.08%
OCCNCCSc1nc(C2CCCCC2)n(-c2ccccc2Cl)n1 | inactive: 0.184%
COCCn1nnnc1C(c1cc2cc(C)cc(C)c2[nH]c1=O)N1CCN(c2ccccc2F)CC1 (stereo not drawn) | inactive: -15.4%
COc1cc(C(CCN2CCCC(C)C2)c2c(OC)cc(OC)c3c2OC(=O)CC3c2ccc(N(C)C)cc2)cc(OC)c1OC (stereo not drawn) | inconclusive: -32.4% [inhibitor]

SMILES | activity change
COc1ccccc1NC(=O)C(=O)N/N=C/c1ccc([N+](=O)[O-])s1 | active: -89.5%
Cc1ccc2ccc3ccc(C)nc3c2n1 | inconclusive: -31.3% [inhibitor]
CCCNc1c(NS(=O)(=O)c2ccc(Br)cc2)c(=O)oc2ccccc12 | inactive: -14%
COc1cccc(CN(C)C(=O)CCN=C2NS(=O)(=O)c3ccccc32)c1 | inconclusive: -30.5% [inhibitor]
Cc1cc(-c2cn3ccccc3n2)c(C)n1-c1ccccc1 | inconclusive: -30.6% [inhibitor]
Cc1ccc2ccc3c(c2n1)NS(=O)(=O)c1ccc(C(F)(F)F)cc1-3 | inactive: 4.67%
CN1CCN(S(=O)(=O)c2cc([N+](=O)[O-])ccc2N2CCCCCC2)CC1 | inconclusive: -39% [inhibitor]
CCCCn1c(-c2sccc2C)n[nH]c1=S | inconclusive: -34.6% [inhibitor]
c1ccc2c(CCNc3ncnc4nc[nH]c34)c[nH]c2c1 | inactive: 19.2%
COc1ccc2nc(-c3ccco3)c(-c3ccco3)nc2c1 | inconclusive: -30.5% [inhibitor]
OCCSc1nc(-c2ccccc2)nc2ccc(F)cc12 | inconclusive: -54.4% [inhibitor]
CC(=O)SCC[N+](C)(C)C | inconclusive: -32.5% [inhibitor]
Cc1ccccc1-c1nnc(SCC(=O)Nc2cccnc2Cl)o1 | inconclusive: -39.6% [inhibitor]
Cc1nn(-c2ccccc2)c2nc(N)c(C#N)c(-c3ccc(C(C)(C)C)cc3)c12 | inconclusive: -37.9% [inhibitor]
COc1ccc(-c2cccc(NC(=O)c3ccco3)c2)nn1 | inactive: -25.8%
COc1ccc(-c2nc(SC)n(S(=O)(=O)c3ccccc3)n2)cc1 | inactive: -10.9%
CC(O)CNCCCCOc1ccc(OCc2ccccc2)cc1 (stereo not drawn) | inactive: -2.57%
COCCCNC(=O)c1ccc(Cn2c(=O)c3ccccc3n(Cc3ccccc3C)c2=O)cc1 | inactive: -7.91%
CC(=O)NC(Cc1ccccc1)C(=O)NC1CCN(c2ncccc2[N+](=O)[O-])CC1 (stereo not drawn) | inconclusive: -54.5% [inhibitor]
O=C(Nc1ccc2c(c1)CCC2)c1ccccc1Br | inactive: -3.45%
Cn1ccc(NC(=O)c2ccc([N+](=O)[O-])cc2)n1 | inconclusive: -43.2% [inhibitor]
Cc1ccc(S(=O)(=O)N2c3cc(C)ccc3OCC2C(C)(C)C)cc1 (stereo not drawn) | inactive: -12.7%
COC(=O)c1ccccc1NC(=O)c1cc2n(n1)C(C(F)F)CC(C(F)F)N2 (stereo not drawn) | inconclusive: -32.6% [inhibitor]
CCc1ccc2nc(NC(=O)c3cc(C)on3)sc2c1 | inactive: -2.03%
CCOC(=O)NN1C(=O)c2ccccc2NC1c1cccs1 (stereo not drawn) | inconclusive: -40.2% [inhibitor]
CC(=O)Nc1sc(C)c(C)c1C(=O)OCC(=O)N(CCC#N)c1cc(C)cc(C)c1 | inconclusive: -44.2% [inhibitor]
